This test has as its target RSV F protein on human RSV virus (Long strain) (human RSV, Long strain). The experiment in a line: cell-based or functional assay.

B1: Fab 020 (Fab, V domains shown)
VH: [… about 120 residues …]
VL: DIVMTQSPDSLAVSLGERATINCRASDSVDLFGQSYMHWYQQKPGQPPKLLIYAASNPESGVPDRFSGSGSGTDFTLTISSLQAEDVAVYYCQQIIADPWTFGQGTKVEIK
The molecule B1 showed a Viral Neut (fold increase over wild-type B23 Fab) of 8 fold.

These data come from patent US20060159695A1.
